The antibiotic and cytotoxicity screens of Wong et al. (2023)
Some of the results follow.

Tests used:
HSkMC = human skeletal muscle cells; experiment: cytotoxicity call (relative viability < 0.9); details: 10 µM
S. aureus RN4220 = experiment: growth inhibition call (relative growth <= 0.2); details: 50 µM

Row | SMILES | cytotoxicity call (HSkMC) | growth inhibition call (S. aureus RN4220)
1 | C[C@@H]1CN([C@@H](C)CO)C(=O)c2cc(NC(=O)CCN3CCOCC3)ccc2O[C@H]1CN(C)C(=O)Nc1ccc(F)cc1 | inactive | inactive
2 | COc1ccc(NC(=O)Nc2cccc3c2O[C@@H](CN(C)S(C)(=O)=O)[C@H](C)CN([C@H](C)CO)C3=O)cc1 | inactive | inactive
3 | C[C@@H]1CN([C@@H](C)CO)C(=O)Cc2cc(NC(=O)Nc3cccc4ccccc34)ccc2O[C@H]1CN(C)C(=O)NC1CCCCC1 | inactive | inactive
4 | C[C@H]1CN([C@@H](C)CO)C(=O)c2cc(C#CCC3CCCC3)cnc2O[C@@H]1CN(C)C(=O)c1cnccn1 | inactive | inactive
5 | CNC[C@H]1OCCCC[C@@H](C)Oc2ccc(NC(=O)Nc3cccc4ccccc34)cc2C(=O)N([C@H](C)CO)C[C@H]1C | inactive | inactive
6 | C[C@H]1CCCCO[C@H](CN(C)Cc2ccncc2)[C@@H](C)CN([C@@H](C)CO)C(=O)c2cc(NC(=O)Nc3cccc4ccccc34)ccc2O1 | inactive | inactive
7 | Cc1noc(C)c1NC(=O)N(C)C[C@H]1Oc2ccc(NC(=O)NC(C)C)cc2C(=O)N([C@H](C)CO)C[C@H]1C | inactive | inactive
8 | O=C(C[C@@H]1C[C@@H]2c3cc(NC(=O)c4ccc5c(c4)OCO5)ccc3O[C@@H]2[C@H](CO)O1)NCc1ccccn1 | inactive | inactive
9 | C[C@@H]1CN([C@@H](C)CO)C(=O)c2cccc(NC(=O)Nc3ccccc3)c2O[C@H]1CN(C)Cc1ccc(C(F)(F)F)cc1 | inactive | inactive
10 | C[C@H](CO)N1C[C@H](C)[C@@H](CN(C)Cc2ccc(C(=O)O)cc2)Oc2ccc(NC(=O)Nc3ccc(C(F)(F)F)cc3)cc2C1=O | inactive | inactive
11 | C[C@@H]1CN([C@@H](C)CO)C(=O)c2cccc(NC(=O)C3CCOCC3)c2O[C@H]1CN(C)Cc1ccccc1 | inactive | inactive
12 | Clc1ccc(CSc2nc3ccccc3s2)cc1 | inactive | inactive
13 | CC(C)NC(=O)N(C)C[C@@H]1Oc2cc(C#Cc3cccc(F)c3)ccc2S(=O)(=O)N([C@@H](C)CO)C[C@@H]1C | inactive | inactive
14 | CC(C)NC(=O)N(C)C[C@H]1OCCCC[C@@H](C)Oc2ccc(NC(=O)Nc3cccc4ccccc34)cc2C(=O)N([C@H](C)CO)C[C@@H]1C | inactive | inactive
15 | Cc1ccc(S(=O)(=O)N(C)C[C@@H]2Oc3ccc(NS(C)(=O)=O)cc3CC(=O)N([C@@H](C)CO)C[C@H]2C)cc1 | inactive | inactive
16 | C[C@@H]1CN([C@H](C)CO)C(=O)c2cc(-c3cccnc3)cnc2O[C@@H]1CN(C)C(=O)Nc1ccc2c(c1)OCO2 | inactive | inactive
17 | C[C@H](CO)N1C[C@H](C)[C@@H](CN(C)C(=O)NC2CCCCC2)Oc2ccc(NC(=O)Nc3ccc(C(F)(F)F)cc3)cc2CC1=O | inactive | inactive
18 | Cc1noc(C)c1S(=O)(=O)Nc1ccc2c(c1)C(=O)N([C@H](C)CO)C[C@@H](C)[C@@H](CN(C)Cc1ccccc1)OCCCC[C@@H](C)O2 | inactive | inactive
19 | C[C@@H]1CN([C@H](C)CO)C(=O)c2cccc(NC(=O)Nc3ccc(F)cc3)c2O[C@H]1CN(C)CC1CCCCC1 | inactive | inactive

Row | SMILES | cytotoxicity call (HSkMC) | growth inhibition call (S. aureus RN4220)
20 | Cc1noc(C)c1NC(=O)Nc1ccc2c(c1)C(=O)N([C@@H](C)CO)C[C@@H](C)[C@@H](CN(C)C(=O)NC1CCCCC1)OCCCC[C@@H](C)O2 | inactive | inactive
21 | Cc1ccc(S(=O)(=O)N[C@@H]2CC[C@H](CC(=O)N3CCC(Cc4ccccc4)CC3)O[C@@H]2CO)cc1 | inactive | inactive
22 | Cc1noc(C)c1NC(=O)Nc1ccc2c(c1)C(=O)N([C@H](C)CO)C[C@H](C)[C@H](CN(C)Cc1ccc(C(=O)Nc3ccccc3N)cc1)OCCCC[C@@H](C)O2 | inactive | inactive
23 | C[C@@H]1CCCCO[C@@H](CN(C)CC2CCCCC2)[C@@H](C)CN([C@H](C)CO)C(=O)c2cc(NC(=O)C3CCCCC3)ccc2O1 | inactive | inactive
24 | O=C(O)CCCN1C(=O)CSC1=S | inactive | inactive
25 | COc1ccc(NC(=O)N(C)C[C@H]2Oc3c(NC(=O)Nc4cccc5ccccc45)cccc3C(=O)N([C@H](C)CO)C[C@@H]2C)cc1 | inactive | inactive
26 | CN(C)CCCNC(=O)C[C@@H]1CC[C@@H]2[C@H](COc3ccc(NC(=O)c4ccc5c(c4)OCO5)cc3C(=O)N2C)O1 | inactive | inactive
27 | C[C@H]1CN([C@@H](C)CO)C(=O)Cc2cc(NC(=O)Nc3ccc4c(c3)OCO4)ccc2O[C@@H]1CN(C)Cc1ccc(C(=O)Nc2ccccc2N)cc1 | inactive | inactive
28 | C[C@@H]1CN([C@H](C)CO)C(=O)c2cc(NC(=O)C3CCCCC3)ccc2O[C@@H]1CN(C)C(=O)Nc1ccc(C(F)(F)F)cc1 | inactive | inactive
29 | Cc1noc(C)c1NC(=O)N(C)C[C@H]1Oc2c(NC(=O)Cn3cnnn3)cccc2C(=O)N([C@H](C)CO)C[C@@H]1C | inactive | inactive
30 | C[C@@H]1CN(CCO[Si](C)(C)C(C)(C)C)C(=O)c2cc(NC(=O)Nc3ccccc3)ccc2O[C@@H](C)CCCCO[C@H]1CN(C)S(=O)(=O)c1ccc(F)cc1 | inactive | inactive
31 | CO[C@@H]1CN(C)C(=O)c2cc(NS(=O)(=O)c3cn(C)cn3)ccc2OC[C@H](C)N(CC2CC2)C[C@@H]1C | inactive | inactive
32 | C[C@H](NC(=O)C[C@H]1C[C@@H]2c3cc(NC(=O)Nc4ccc(C(F)(F)F)cc4)ccc3O[C@@H]2[C@@H](CO)O1)c1ccccc1 | inactive | inactive
33 | C[C@H](CO)N1C[C@H](C)[C@H](CN(C)S(=O)(=O)c2ccc(Cl)cc2)Oc2ccc(NC(=O)CCN3CCOCC3)cc2C1=O | inactive | inactive
34 | C=CCC[C@H](Cc1ccc(F)cc1)C(=O)O[C@H](CNC(=O)[C@@H](CC=C)CC(=O)N(CCO)Cc1ccccc1)c1ccccc1 | inactive | inactive
35 | C[C@@H]1CN([C@H](C)CO)C(=O)c2cc(NC(=O)c3ccccc3)ccc2O[C@@H](C)CCCCO[C@@H]1CN(C)Cc1ccc(C(F)(F)F)cc1 | inactive | inactive
36 | C[C@H]1CCCn2nncc2COCCNC1=O | inactive | inactive
37 | C[C@@H]1O[C@H](O[C@H]2[C@H](OC(=O)[C@]34CCC(C)(C)C[C@@H]3C3=CC[C@@H]5[C@@]6(C)CC[C@H](O[C@@H]7O[C@@H](C)[C@H](O[C@@H]8OC[C@@H](O)[C@H](O)[C@H]8O)[C@@H](O)[C@H]7O)C(C)(C)[C@@H]6CC[C@@]5(C)[C@]3(C)C[C@@H]4O)OC[C@H](O)[C@H]2O)[C@H](O)[C@H](O)[C@H]1O[C@@H]1O[C@H](CO)[C@@H](O)[C@H](O)[C@H]1O | inactive | inactive
38 | C[C@H]1CN([C@@H](C)CO)S(=O)(=O)c2ccc(C#CC3(O)CCCC3)cc2O[C@H]1CN(C)C(=O)Nc1ccc(F)cc1 | inactive | inactive

Row | SMILES | cytotoxicity call (HSkMC) | growth inhibition call (S. aureus RN4220)
39 | C[C@@H]1CN([C@@H](C)CO)C(=O)c2cc(NC(=O)Nc3ccccc3)ccc2O[C@@H](C)CCCCO[C@@H]1CN(C)S(=O)(=O)c1ccc(Cl)cc1 | inactive | inactive
40 | C[C@H](CO)N1C[C@H](C)[C@H](CN(C)S(=O)(=O)c2ccc(Cl)cc2)Oc2ccc(NC(=O)C3CC3)cc2CC1=O | inactive | inactive
41 | Cc1noc(C)c1S(=O)(=O)Nc1ccc2c(c1)CC(=O)N([C@H](C)CO)C[C@H](C)[C@H](CN(C)S(=O)(=O)c1ccccc1)O2 | inactive | inactive
42 | CN1CCN(C(=O)C[C@H]2CC[C@@H]3[C@@H](COc4ccc(NC(=O)c5cscn5)cc4C(=O)N3C)O2)CC1 | inactive | inactive
43 | C[C@@H]1CN([C@H](C)CO)C(=O)Cc2cc(NC(=O)Cn3cnnn3)ccc2O[C@H]1CN(C)S(=O)(=O)c1ccc(Cl)cc1 | inactive | inactive
44 | O=C(O)CNc1ncccc1O | inactive | inactive
45 | CC(C)NC(=O)Nc1ccc2c(c1)CC(=O)N([C@H](C)CO)C[C@@H](C)[C@@H](CN(C)S(=O)(=O)c1ccc(Cl)cc1)O2 | inactive | inactive
46 | NC(Cc1cc(I)c(Oc2ccc(O)c(I)c2)c(I)c1)C(=O)O (configuration not stated) | inactive | inactive
47 | C[C@@H]1CN([C@@H](C)CO)C(=O)Cc2cc(NC(=O)C3CC3)ccc2O[C@H]1CN(C)S(=O)(=O)c1cccs1 | inactive | inactive
48 | CCC(=O)Nc1ccc(Cl)cc1 | inactive | inactive
49 | COc1ccc(CN(C)C[C@H]2OCCCC[C@@H](C)Oc3ccc(NS(=O)(=O)c4c(C)noc4C)cc3C(=O)N([C@H](C)CO)C[C@@H]2C)cc1 | inactive | inactive
50 | COc1cccc(-c2ccc3c(c2)O[C@H](CN(C)C(=O)C2CCOCC2)[C@@H](C)CN([C@H](C)CO)S3(=O)=O)c1 | inactive | inactive
51 | Cc1noc(C)c1S(=O)(=O)Nc1ccc2c(c1)CC(=O)N([C@H](C)CO)C[C@@H](C)[C@@H](CN(C)Cc1ccc(Oc3ccccc3)cc1)O2 | inactive | inactive
52 | C[C@@H]1CCCCO[C@H](CN(C)Cc2ccc(C(=O)O)cc2)[C@H](C)CN([C@@H](C)CO)C(=O)c2cc(NC(=O)Nc3ccc(F)cc3)ccc2O1 | inactive | inactive
53 | COc1ccc(CN(C)C[C@@H]2OCCCC[C@@H](C)Oc3ccc(NC(=O)Nc4ccc(F)cc4)cc3C(=O)N([C@@H](C)CO)C[C@@H]2C)cc1 | inactive | inactive
54 | Cc1ccc(S(=O)(=O)N(C)C[C@H]2OCCCC[C@H](C)Oc3ccc(NC(=O)Nc4ccc(C(F)(F)F)cc4)cc3C(=O)N([C@@H](C)CO)C[C@@H]2C)cc1 | inactive | inactive
55 | Nc1ncnc2c1ncn2[C@H]1O[C@H](COP(=O)(O)O)[C@@H](O)[C@H]1O | inactive | inactive
56 | C=C/C=C/C[C@@H](C)[C@@H](O)[C@H]1C(=O)N[C@@H](CC)C(=O)N(C)CC(=O)N(C)[C@@H](CC(C)C)C(=O)N[C@@H](C(C)C)C(=O)N(C)[C@@H](CC(C)C)C(=O)N[C@@H](C)C(=O)N[C@H](C)C(=O)N(C)[C@@H](CC(C)C)C(=O)N(C)[C@@H](CC(C)C)C(=O)N(C)[C@@H](C(C)C)C(=O)N1C | inactive | inactive
